# Measurements published in patent publication US20230235080A1, “TROPHOBLAST CELL-SURFACE ANTIGEN-2 (TROP-2) ANTIBODIES” (Bionecure Therapeutics, Inc., priority 2020, published 2023).
# T1: human EPCAM-His (Homo sapiens, UniProt P16422)
# T1 sequence (P16422 24-314): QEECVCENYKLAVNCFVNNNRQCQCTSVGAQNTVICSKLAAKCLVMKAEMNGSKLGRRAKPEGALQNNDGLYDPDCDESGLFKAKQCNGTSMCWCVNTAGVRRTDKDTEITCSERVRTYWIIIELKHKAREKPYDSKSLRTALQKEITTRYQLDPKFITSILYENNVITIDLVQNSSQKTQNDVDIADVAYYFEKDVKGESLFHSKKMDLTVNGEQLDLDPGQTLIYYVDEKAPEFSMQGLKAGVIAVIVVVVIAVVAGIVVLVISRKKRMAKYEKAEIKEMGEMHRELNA
# T2: mouse Trop-2-His (Mus musculus, UniProt Q8BGV3)
# T2 sequence (Q8BGV3 25-317): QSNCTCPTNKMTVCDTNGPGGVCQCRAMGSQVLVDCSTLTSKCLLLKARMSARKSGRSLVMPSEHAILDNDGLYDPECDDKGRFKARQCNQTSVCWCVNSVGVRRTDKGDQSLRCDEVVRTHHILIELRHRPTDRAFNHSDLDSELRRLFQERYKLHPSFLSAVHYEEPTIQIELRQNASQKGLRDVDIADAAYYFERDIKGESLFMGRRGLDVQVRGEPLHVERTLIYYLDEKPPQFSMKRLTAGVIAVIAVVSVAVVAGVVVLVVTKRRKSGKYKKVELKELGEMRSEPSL
# T3: human Trop-2-ECD-6His fusion protein (Homo sapiens, UniProt P09758)
# T3 construct: made in house; host or cells: human 293 cell line
# T3 sequence (P09758 with tags, fused parts or gaps): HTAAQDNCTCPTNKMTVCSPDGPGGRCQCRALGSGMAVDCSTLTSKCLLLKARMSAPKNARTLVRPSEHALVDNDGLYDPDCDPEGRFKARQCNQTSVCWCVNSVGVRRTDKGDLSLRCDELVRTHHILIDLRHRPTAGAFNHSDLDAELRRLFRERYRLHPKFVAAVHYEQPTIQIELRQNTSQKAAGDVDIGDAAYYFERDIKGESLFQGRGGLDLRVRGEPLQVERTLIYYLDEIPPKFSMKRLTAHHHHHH
# T4: human Trop-2ECD-6His (Homo sapiens, UniProt P09758)
# T4 construct: made in house; host or cells: human 293 cell line
# T4 sequence (P09758 with tags, fused parts or gaps): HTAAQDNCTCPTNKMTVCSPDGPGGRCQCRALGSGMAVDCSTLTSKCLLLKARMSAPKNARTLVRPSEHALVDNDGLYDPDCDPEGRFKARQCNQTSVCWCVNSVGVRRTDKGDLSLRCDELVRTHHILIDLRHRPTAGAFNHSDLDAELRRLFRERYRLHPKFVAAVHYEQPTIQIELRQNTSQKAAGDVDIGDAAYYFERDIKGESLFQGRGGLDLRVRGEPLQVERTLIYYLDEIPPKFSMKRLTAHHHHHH
# Legend:
# human EPCAM-His = target: T1, human EPCAM-His; assay: Cross-reactivity ELISA, human EPCAM; assay type: binding; conditions: plate coated with 1 µg/mL antigen
# Description: (§1) Cross-reactivity of chimeric IgG #118-2-5 and #125-1-5 to the Trop-2 antigens from different species was assessed by ELISA. In this experiment, a microtiter plate was coated overnight at 4° C. with 50 µL/well of 1 µg/mL human Trop-2ECD-6His, mouse Trop-2-His, cynomolgus Trop-2-His, human EPCAM-His, and a non-related protein. The plate was washed and blocked for 1 hr at 37° C., and then washed with wash buffer. Purified chimeric IgGs appropriately diluted in PBS were added to wells and incubated for 1 hr at 37° C. After washing, bound antibodies were detected using HRP-conjugated goat-anti-human IgG Ab. Color development and absorbance at OD450 nm were read. A non-specific mock mouse IgG and a non-specific mock human IgG were included as the negative controls, while anti-His antibody was used as a positive control.
# (§2) The cross-reactivity of purified IgGs to the Trop-2 antigens from different species was tested by ELISA. In this experiment, a microtiter plate was coated overnight at 4° C. with 50 µL/well of 1 µg/mL human Trop-2ECD-6His, mouse Trop-2-His, cynomolgus Trop-2-His, human EPCAM-His, and a non-related protein. The plate was washed and blocked for 1 hr at 37° C., and then washed with wash buffer. […] After washing, bound antibodies were detected using HRP-conjugated goat-anti-human IgG antibody. Color development and absorbance at OD450 nm were read. […]
# non-related protein = assay: Cross-reactivity ELISA, non-related protein; assay type: binding; conditions: plate coated with 1 µg/mL protein
# Description: as §1, §2
# mouse Trop-2-His = target: T2, mouse Trop-2-His; assay: Cross-reactivity ELISA, mouse Trop-2; assay type: binding; conditions: plate coated with 1 µg/mL antigen
# Description: as §1, §2
# cynomolgus Trop-2-His = assay: Cross-reactivity ELISA, cynomolgus Trop-2; assay type: binding; conditions: plate coated with 1 µg/mL antigen
# Description: as §1, §2
# [1] = target: T3, human Trop-2-ECD-6His fusion protein; assay: Antigen binding assay (ELISA) on immobilized Trop-2-ECD-6His
# Description: Using the HCVR sequence and LCVR sequence of mAbs #118-2-5 and #125-1-5, two murine-human chimeric IgG1 (hereinafter “chimeric IgG1”) was prepared which comprised the heavy chain sequences set forth in SEQ ID NOs: 47 and 49, and the light chain sequences set forth in SEQ ID NOs: 48 and 50. Nucleic acids encoded by SEQ ID NO: 19, 20 and SEQ ID NO: 21, 22 were amplified and inserted into pTT5 to make an expression plasmid of the full-length IgG. The heavy chain and light chain expression plasmids were used to co-transfect 100 mL HEK293-6E cells. The recombinant IgG secreted into to media was purified using protein A affinity. The purified IgG migrated as ~150 kDa band in SDS-PAGE under non-reducing conditions, ~55 kDa and ~30 kDA bands under reducing condition. The purity of the chimeric IgG is >90%. The binding affinity between the chimeric IgGs and a human Trop-2-ECD-6His fusion protein (SEQ ID NO:2) was determined by ELISA. The Trop-2-ECD-6His fusion protein was immobilized on the surface of a microplate wells and incubated with the chimeric IgGs. A secondary enzyme-labeled goat-anti-mouse IgG-AP was then added. After washing, the activity of the microplate well-bound enzyme was measured by adding the substrate. Color development and absorbance at 405 nm were read.
# [2] = tested on: Trop-2 positive breast cancer cell line MDA-MB-468; assay: Internalization assay by flow cytometry (Example 2 protocol); assay type: cell-based, human
# Description: The chimeric IgG1 #118-2-5 and #125-1-5 were further evaluated by internalization assay using Trop-2 positive breast cancer cell line MDA-MB-468. MDA-MB-468 cells were seeded at 1×10^5 cell/well. Next, the chimeric or benchmark IgGs were added to cells in FACS buffer and incubated for 2 hours at 4° C. After incubation, the cells were washed to remove unbound antibody. The cells were then incubated at 37° C. After 2 hours, the cells were dissociated and stained with fluorescent-conjugated […] secondary antibodies for 30 minutes on ice in dark before being analyzed using Beckman flow cytometry system. The fluorescent intensity and cell binding percentage at each time point were analyzed by Beckman flow cytometric software. The amount of chimeric IgGs internalized into cells was determined using the following formula: % internalization rate = 100 × (MFI4°C - MFI37°C) / MFI4°C.
# human Trop-2ECD-6His = target: T4, human Trop-2ECD-6His; assay: Cross-reactivity ELISA, human Trop-2; assay type: binding; conditions: plate coated with 1 µg/mL antigen
# Description: as §1, §2
molecule,measurement,setting,value
"#118-2-5: murine mAb (VH SEQ ID NO: 15, VL 17) tested as murine-human chimeric IgG1, HC SEQ ID NO: 47, LC 48 (antibody) heavy: QVQLKQSGPGLVAPSQSLSITCTVSGFSLTSYGVNWIRQPPGKGLEWLGVMWAGGSTNYNSALMSRLSISKDNSKSQVFLKMNSLQTDDTGMYYCARDENWDGAWFAYWGQGTLVTVSASTKGPSVFPLAPSSKSTSGGTAALGCLVKDYFPEPVTVSWNSGALTSGVHTFPAVLQSSGLYSLSSVVTVPSSSLGTQAYICNVNHKPSNTKVDKKVG[left out - human IgG1 Fc with K334R T359A (EU numbers)] light: DIQMTQSPSSLAVSAGEKVTMSCKSSQSLLNSGTRKNYLAWYQQKPGQSPKLLISWASSRESGVPDRFTGSGSGTDFTLTISSVQAEDLAVYYCKQSYNLFTFGGGTKLELKRTVAAPSVFIFPPSDEQLKSGTASVVCLLNNFYPREAKVQWKVDNALQSGNSQESVTEQDSKDSTYSLSSTLTLSKADYEKHKVYACEVTHQGLSSPVTKSFNRGEC","recognition of hEPCAM (ELISA, OD450 nm)",human EPCAM-His,did not recognize
same,"recognition of the non-related protein (ELISA, OD450 nm)",non-related protein,did not recognize
same,"recognition of mouse Trop-2 (ELISA, OD450 nm)",mouse Trop-2-His,did not recognize
same,"binding to cynomolgus Trop-2 antigen (ELISA, OD450 nm)",cynomolgus Trop-2-His,able to bind
same,"OD value, Conditioned Medium 1 to 1 ratio","[1]; Table 3, ELISA absorbance at 405 nm, 1 to 1 ratio",1.996
same,"OD value, Conditioned Medium 1 to 10 ratio","[1]; Table 3, ELISA absorbance at 405 nm, 1 to 10 ratio",2.032
same,binding affinity to Trop 2 compared with benchmark hRS7,"[1]; in words, chimeric IgGs, see OD value in Table 3",higher binding affinity than the benchmark reference antibody hRS7
same,Internalization Rate,"[2]; Table 4, chimeric IgGs, 2 hours at 37° C., 100 × (MFI4°C - MFI37°C) / MFI4°C",40.44%
same,internalization rate compared with benchmark IgG,"[2]; in words, chimeric IgG",much better internalization rate than the benchmark IgG
same,"binding to human Trop-2 antigen (ELISA, OD450 nm)",human Trop-2ECD-6His,able to bind
